Results reported in paper PMC6919601, “Identification of Plasmodium dipeptidyl aminopeptidase allosteric inhibitors by high throughput screening” (PLoS ONE, 2019).
About 230 (0.21%) of roughly 110,000 compounds showed an effect of 50% or more. Some of the results follow.

biological target: DPAP1 (Plasmodium falciparum, UniProt Q8IIJ9); test: primary screen, percent inhibition; read by cleavage of a fluorogenic dipeptide substrate; higher = more effect of the substance; design: species or system P. falciparum D10 trophozoite lysates; single well
Sequence (Q8IIJ9 whole entry, looked up): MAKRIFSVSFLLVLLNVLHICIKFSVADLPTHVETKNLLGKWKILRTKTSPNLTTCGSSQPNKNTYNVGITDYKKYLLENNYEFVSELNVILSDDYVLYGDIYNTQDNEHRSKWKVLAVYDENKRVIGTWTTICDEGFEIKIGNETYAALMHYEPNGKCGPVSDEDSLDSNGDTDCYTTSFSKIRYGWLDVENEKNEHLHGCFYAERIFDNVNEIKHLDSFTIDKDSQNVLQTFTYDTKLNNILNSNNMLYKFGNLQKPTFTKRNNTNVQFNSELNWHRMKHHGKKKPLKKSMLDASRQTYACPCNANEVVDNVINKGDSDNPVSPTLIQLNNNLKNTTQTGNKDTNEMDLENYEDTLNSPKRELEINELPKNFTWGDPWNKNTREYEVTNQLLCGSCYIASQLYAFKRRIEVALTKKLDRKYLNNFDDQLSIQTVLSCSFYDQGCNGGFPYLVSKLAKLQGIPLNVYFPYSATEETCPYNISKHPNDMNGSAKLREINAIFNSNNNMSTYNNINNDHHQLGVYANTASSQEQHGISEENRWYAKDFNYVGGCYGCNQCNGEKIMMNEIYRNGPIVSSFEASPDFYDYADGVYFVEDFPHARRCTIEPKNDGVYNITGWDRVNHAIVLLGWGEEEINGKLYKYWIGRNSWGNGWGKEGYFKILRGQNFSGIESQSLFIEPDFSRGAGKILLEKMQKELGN
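Further: 30 min substrate incubation versus DMSO and 10 µM JCP410 controls.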

SMILES	% Inhibition @ 10 uM [%]
COc1ccc(C(=N)NOC(=O)Cc2ccc(Cl)cc2)cc1OC	-5.08
CCOc1cccc(=O)c2c(C)oc(C)c12	0.162
Cc1ccccc1N/C=C1/C(=O)NC(=O)N(c2ccc(Cl)cc2)C1=O	-8.63
OCCN1CCN(c2ncnc3ccc(Br)cc23)CC1	0.67
CCOc1ccc(CCN2CNc3c(c(=O)n(C)c(=O)n3C)C2)cc1	2.34
Cc1[nH]cnc1CN1CCCCCCC1	-1.64
C=CCOC(=O)C1=C(C)N=C(C)/C(=C(/O)OCC=C)C1c1ccc(OC)c(OC)c1 (stereo not drawn)	-1.93
Cc1ccc(C)c(CN2CCC(CN3CNc4c(c(=O)n(C)c(=O)n4C)C3)CC2)c1	-4.74
CC(=O)Nc1cccc(NC(=O)c2cccc(Br)c2)c1	6.25
Cn1c(=O)c2nc(NC3CCCC3)[nH]c2n(C)c1=O	-1.18
Cc1ccc(C(C(=O)NCc2ccccc2)N(Cc2ccco2)C(=O)Cn2nnc3ccccc32)cc1 (stereo not drawn)	5.29
CC1CN(C2CCN(Cc3ccccc3)CC2)CC(C)O1 (stereo not drawn)	3.19
CCOC(=O)c1ccc(NC(=O)C(F)(OC)C(F)(F)F)cc1 (stereo not drawn)	-0.0619
Cc1cc(C)c(C#N)c(SCc2cc3c(cc2Cl)OCO3)n1	-4.76
CC1=C(c2ccc(C(C)C)cc2)S(=O)(=O)N=C1NCCCc1ccccc1	5.42
O=c1cc(C2Nc3ccccc3N=C3CC(c4cccs4)CC(O)=C32)oc2ccccc12 (stereo not drawn)	-2.88
CCN(C(=O)COc1ccc(Br)c(C)c1)c1ccccc1	-5.29
CC1CN(c2ncnc3sc4c(c23)CCCCC4)CC(C)O1 (stereo not drawn)	-2.32
CCOC(=O)c1c(NC(=O)CN2C(=O)S/C(=C\c3ccc(F)cc3)C2=O)sc2c1CCCC2	-2.27
CCCCCN1CCN(c2nc(-c3ccccc3)c3cc(C)ccc3n2)CC1	-1.99
CCOC(=O)c1nc(Cn2c(C(F)(F)F)nc3ccccc32)no1	-0.92
O=C(CCCn1c(=O)c2cccn2c2cccnc21)NCCc1ccccc1Cl	1.63
Cc1ccccc1CNCc1cccn1-c1nnc(N2CCC(C(=O)O)CC2)s1	-2.53
Cc1nc(N2CCCCC2)c(C#N)c(C)c1Cl	3.81
COc1cccc(Nc2nc(NCCO)c3ccccc3n2)c1	-3.65
O=C(NCc1ccco1)C1CCCN(S(=O)(=O)N2CCC3(CC2)OCCO3)C1 (stereo not drawn)	2.54

SMILES	% Inhibition @ 10 uM [%]
Oc1nc(Cc2ccccc2Cl)nc2c1nnn2Cn1nnc(-c2ccccc2)n1	-3.24
COc1cc(S(=O)(=O)N2CCC3(CC2)OCCO3)ccc1-n1cnnn1	1
COc1ccc(C2=NN(C(=O)CSCc3ccco3)C(c3cccc(OC)c3OC)C2)cc1 (stereo not drawn)	-7.08
Cc1ccc(S(=O)(=O)N(c2ccccc2)C(C)C2CC2)cc1 (stereo not drawn)	2.22
CN(CC(=O)N1CCN(Cc2ccccc2)CC1)S(=O)(=O)c1c[nH]cn1	-0.0309
O=C(Nc1ccccc1)c1cc(S(=O)(=O)Nc2cccnc2)ccc1Cl	5.73
CC12CCCc3c(O)cc(=O)n(c31)-c1ccccc12 (stereo not drawn)	0.722
CCOC(=O)C1CCCN(Cc2ccsc2)C1 (stereo not drawn)	0.708
NC(=O)c1c(NC(=O)c2ccccc2Cl)sc2c1CCCC2	-2.78
CCOc1ccccc1-n1cc2c(c1-c1ccccc1)c(=O)n(C)c(=O)n2C	-6.85
COc1ccc(O)c(C2=NN3C(C2)c2cccc(OC)c2OC32CCCC2)c1 (stereo not drawn)	0.0719
Oc1ccc(-c2[nH]ncc2Oc2ccccc2)c(O)c1	0.687
COc1ccc(NS(=O)(=O)c2cc(C(=O)O)c(Cl)cc2Cl)cc1	0.361
Cc1ccc2c(CNCc3cccc(F)c3)c(C(=O)O)n(Cc3ccccc3F)c2c1	5.45
Cc1nn2c(c1-c1cccc(Cl)c1)NCN(Cc1ccc(F)cc1)C2	-1.08
CCOC(=O)N1CCN(C2CCCCCC2)CC1	1.88
COc1cc2c(cc1OC)C(COc1ccccc1OC)N(C(=O)C1CC1)CC2 (stereo not drawn)	-4.64
Cc1ccc(C(=O)C2=C(O)C(=O)N(c3ncccn3)C2c2ccc(Cl)c(Cl)c2)o1 (stereo not drawn)	2.55
O=C(Nc1ccc2c(c1)OCO2)C1CC2CCC1C2 (stereo not drawn)	3.48
Cc1nn(Cc2ccccc2Cl)c(C)c1NC(=O)NC12CC3CC(CC(C3)C1)C2	-13.5
Cc1cc2c(cc1C)N(Cc1ccccc1)C1=NCCN12	5.2
O=C(NC1CCN(Cc2ccccc2)CC1)c1cc(-c2ccccc2)[nH]n1	-3.12
COc1ccc(N(CC(=O)NCc2ccncc2)S(=O)(=O)c2ccccc2)cc1Cl	-0.312
O=C(Cn1cnc2c(nc3n2CCCCC3)c1=O)NCc1ccco1	0.721
Cc1ccsc1CN(C(=O)C(C)Oc1ccc(Cl)cc1Cl)C1CCS(=O)(=O)C1 (stereo not drawn)	3.77
